Some of the results follow.
B1: chrX:50386357:50386586:-|CDS|ENSG00000274588|control|control|control (ssRNA)
RNA: GGGAGUUCUACAGUCCGACGAUCAGAAUAUGCAGACAGCAGCAAGGCAGAUAGGAAGCCCUUCAUUCCUCAAAUAGACCACAUAGCCAAGUGCAAGUUGGAGCUGGCUACAAAGGCCCAGAGUCUCCAGAAAUCCUUGAAACUCAACAGAGGAUUGAGCAUCA
B2: chr11:8104520:8104621:+|3pUTR|ENSG00000166402|msi1|FALSE|unique (ssRNA)
RNA: GGGAGUUCUACAGUCCGACGAUCGGCAAUCAGCAAUCAACUGAGGUUUCUUAAUUGUGAUUAUAUUCCUGAGAAUGAAUGAGUAGGAAAGGAAUAAGGAUGUUGUUAUGAUCGCCUGUGGAUUUUGUCCAUUCAUCUCAUGCUCAACAGAGGAUUGAGCAUCA
B3: chr2:96185838:96185916:-|3pUTR|ENSG00000084090|msi1_unk|total|mutant (ssRNA)
RNA: GGGAGUUCUACAGUCCGACGAUCUGGGAGACUAAUCCUUUCCGACCGCCGCUUUUUGAUGCUCAAAACAUCACAUUUAAAUUCCGUUUAAAAAUUUUUUAACUUUUGUGUCAAACCGGAGUUGAGGAAUUGAGCAGGAUUCUACAACAGAGGAUUGAGCAUCA
B4: chr9:128108756:128108857:+|3pUTR|ENSG00000148339|msi1|total|mutant (ssRNA)
RNA: GGGAGUUCUACAGUCCGACGAUCAAGGCAGCAGCCCUGGCUCCUUUCCUUUGGCAGGUUGGGGAAGGGCUUGCCCCCAGCCUCCGGAUUUCAGGGUUUGACUGGGGGCGUGGAGAGAGAGGGAGGAACCUCAAUAACCUUGAACAACAGAGGAUUGAGCAUCA
B5: chr6:43012266:43012370:-|3pUTR|ENSG00000124733|unk|total|mutant (ssRNA)
RNA: GGGAGUUCUACAGUCCGACGAUCGAGACCCACUUUAUUCAGUUCUGUACAUAUGGGGACAUCGGUCCAAGCCCAACCCACCUCCGCAUGUAUCACUCUGUGGAGAAUAAAGCACCCUAUGUACACAGCCAAAAGCCGCACUGCCAACAGAGGAUUGAGCAUCA
B6: chr13:35475095:35475222:-|CDS|ENSG00000180660|unk|total|mutant (ssRNA)
RNA: GGGAGUUCUACAGUCCGACGAUCGCUGCAACUUAUCUCCUGCCUGCAGUGCCGGCGGUGUCCCCACUACUUUCUACCGAACUCCGAUCUGUUUCAAGGCAAACCUCACUCAGCUCUGGAAAACGCUGCCAAACAAACGUGGCGCAACAGAGGAUUGAGCAUCA
B7: chr10:69104613:69104714:+|3pUTR|ENSG00000122862|unk|total|mutant (ssRNA)
RNA: GGGAGUUCUACAGUCCGACGAUCACAUAUUUUACAGGGUGGAGUGUACUAUAUACUAUUACCUUUGAAUGUGUUUGCAGAGCCCGUGGAUGUGUUUGUCUACAAGUAUGAUUGCUGUUACAUAACACCCCAAAUUAACUCCCACAACAGAGGAUUGAGCAUCA
B8: chr3:105576037:105576138:+|3pUTR|ENSG00000170017|msi1|FALSE|unique (ssRNA)
RNA: GGGAGUUCUACAGUCCGACGAUCCUCCGUUUAAUAAAAGCUUCCGUAGUGCAUUGGUAUGGAUUAAAUGCAUAAAAUAUUCUUAGACUCGAUGCUGUAUAAAAUAUUAUGGGAAAAAAAGAAAAUACGUUAUUUUGCCUCUAACAACAGAGGAUUGAGCAUCA
B9: chr10:72011604:72011705:+|3pUTR|ENSG00000122863|msi1|total|mutant (ssRNA)
RNA: GGGAGUUCUACAGUCCGACGAUCCACCUGCCCGGAGACAGAGGGAGCAGCUGAGGCCUCUCUCCACUGGCCGCCAGCCUCCCCCGCACAAGGGGACCAUUCAGCAAUGAGUGUUUACUCAUGUUCUUUCUUGUUGAUGAGUUCCAACAGAGGAUUGAGCAUCA
B10: ENSG00000198589:be:win_6951|CDS|ENSG00000198589|bound_else_gene|NA|bound_elsewhere_windowed (ssRNA)
RNA: GGGAGUUCUACAGUCCGACGAUCGCAAGGAGGCAAAUUUGAUCAUGCAGAUCGAACUUUUUCAUCAAUUUCCAGAGCUUGGCGAAACAGUCAGCGUGAUACCUCUGAUAUUAAGGAGUUGAUCCCUGAAUUUUAUUAUCUCCCCAACAGAGGAUUGAGCAUCA
B11: ENSG00000107863:be:win_2501|CDS|ENSG00000107863|bound_else_gene|NA|bound_elsewhere_windowed (ssRNA)
RNA: GGGAGUUCUACAGUCCGACGAUCAGGUCCCCUCCAUAGCAACAGUUCCUCCUUGCCUCACAACUUCAGCUCCAUUAAUUCGCCGUCAGCUCUCACAUGACCACGAAUCUGUUGGCCCUCCUAGCCUGGAUGCUCAGCCCAACUCAACAGAGGAUUGAGCAUCA
B12: ENSG00000198589:be:win_251|CDS|ENSG00000198589|bound_else_gene|NA|bound_elsewhere_windowed (ssRNA)
RNA: GGGAGUUCUACAGUCCGACGAUCUCAUUAUCCAAGAAGGUGAGAGUAUUAACUGCAUGGUGGACCUACUGGAAAAAUGUGACAUUACGUGCCAAGCAGAAGUCUGGAGCAUGUUUACAGCCAUUCUGAAGAAAAGCAUACGGACAACAGAGGAUUGAGCAUCA
B13: chr3:41225420:41225524:+|CDS|ENSG00000168036|unk|total|mutant (ssRNA)
RNA: GGGAGUUCUACAGUCCGACGAUCCAUGCGUUCUCCUCAGAUGGUGUCUGCUAUUGUACGUACCAUGCAGAAUACAAAUGAUGCCGAAACAGCUCGUUGUACCGCUGGGACCUUGCAUAACCUUUCCCAUCAUCGUGAGGGCUUCAACAGAGGAUUGAGCAUCA
B14: ENSG00000127954:stop:overlap|stop_codon|ENSG00000127954|stop_codon|NA|stop_codon (ssRNA)
RNA: GGGAGUUCUACAGUCCGACGAUCCAUGUGUAGACAACACCCUUACAAGGAUCCGCCAGGGCUGGGAAAGGAACUCAAAACACUAGAAAAAGCAUUGAAUGGAAAAUCAAUAUUUAAAACAAAGUUCAAUUUAGCUGGAUUUCUCAACAGAGGAUUGAGCAUCA
B15: chr1:67413009:67413110:-|3pUTR|ENSG00000142864|unk|total|mutant (ssRNA)
RNA: GGGAGUUCUACAGUCCGACGAUCCUGAAUUUUAUCUGUUUUAAAAAUGAACUUCUCCCGCUACACAGAAGUAACAAAUAUGGCCGUCAGUUUUGUAUUCCGAAAUGUAUUGGCCGCAGGGAUGUUUUCAUAAUUUUCAGAGAUCAACAGAGGAUUGAGCAUCA
B16: chr9:19286831:19286940:+|CDS|ENSG00000137145|unk|FALSE|unique (ssRNA)
RNA: GGGAGUUCUACAGUCCGACGAUCAUUCCAGGAUGUGAAGUGAUCCUAGCCACACCCUAUGGUCGCUGUGCCAAUGUCAACAAUAGUUCAACUACUUCACAAAGAAUCUUUAUCACUUAUCGAAGGGCUCCUCCAGUUCGACCCCAACAGAGGAUUGAGCAUCA
B17: chr17:49055506:49055607:+|3pUTR|ENSG00000159217|unk|FALSE|unique (ssRNA)
RNA: GGGAGUUCUACAGUCCGACGAUCCACUUCCCGGCUGUGGGGGCUGGGGAGCCACUUGUAACAUUUCUGUGCAGAUUUUAUGUUAGCCACUGCUAUGUAAAAGCACGUUCAAAAUGAAUUUCAGCAGAUUAUGUGUUACCAUAACAACAGAGGAUUGAGCAUCA
B18: chr4:113336597:113336699:+|CDS|ENSG00000145362|unk|FALSE|bound_elsewhere (ssRNA)
RNA: GGGAGUUCUACAGUCCGACGAUCACCUAUGCACAGUGAGCUGGUUAAGAAGAUCCUAGGCAACAAAGCUACCUUCAGCCCUAUAGUCACUUUGGAACCUAGAAGAAGAAAAUUCCACAAACCAAUUACCAUGACCAUUCCUGUCAACAGAGGAUUGAGCAUCA
B19: chr14:81473690:81473791:-|3pUTR|ENSG00000071537|msi1|total|mutant (ssRNA)
RNA: GGGAGUUCUACAGUCCGACGAUCCAGUGUUUUGGAAGUAUGCAUGCAGGCCUAUAAAUGAAAAACACAAUUCUUUAUGUGUACCGCAUGUGUAUUAAUGUCUAACUACAUACGCAAAAACUUCCUUUACAGAGGUUCGGACUACAACAGAGGAUUGAGCAUCA
B20: chr4:138167974:138168075:-|3pUTR|ENSG00000151012|msi1|total|mutant (ssRNA)
RNA: GGGAGUUCUACAGUCCGACGAUCCACAAAAUCUGCAUUGUCCAUGUGAGUAAAGUAAAAUAAUUCCUGUUAUUUUUUUCUGUCCGAAAUAAGUAUGGAGGAUAUGUUUUUAAAAAUUUAUGAGUUAAUUGAAAUAUCCAUAUACAACAGAGGAUUGAGCAUCA
B21: chr6:21598408:21598509:+|3pUTR|ENSG00000124766|msi1|total|mutant (ssRNA)
RNA: GGGAGUUCUACAGUCCGACGAUCCGUUAAGGGUUUUUGUUUUUAAACUUUUUUUUGCCAUCCAUCCUGUGCAAUAUGCCGUGCCGAAUAUUUGUCUUAAAAUUCAAGGCCACAAAAACAAUGUUUGGGGGAAAAAAAAGAAAACAACAGAGGAUUGAGCAUCA
B22: chr12:100625254:100625355:+|3pUTR|ENSG00000139354|unk|FALSE|unique (ssRNA)
RNA: GGGAGUUCUACAGUCCGACGAUCAUAUGUAUUAAAUAUGGAGUUCAUAUACCUGCUAAUAUCAACGGUGGUGCUCUUACUAUUAGUUAAUUGCAUUUUGGUUAAAAAAAAAAAAGCAACAGUUUGGCACUUGUCCUACAAAAGCAACAGAGGAUUGAGCAUCA

Target: T1, UNK ZnF1-6 (called full-length) (human, UniProt Q9C0B0 30-357)
T1 sequence: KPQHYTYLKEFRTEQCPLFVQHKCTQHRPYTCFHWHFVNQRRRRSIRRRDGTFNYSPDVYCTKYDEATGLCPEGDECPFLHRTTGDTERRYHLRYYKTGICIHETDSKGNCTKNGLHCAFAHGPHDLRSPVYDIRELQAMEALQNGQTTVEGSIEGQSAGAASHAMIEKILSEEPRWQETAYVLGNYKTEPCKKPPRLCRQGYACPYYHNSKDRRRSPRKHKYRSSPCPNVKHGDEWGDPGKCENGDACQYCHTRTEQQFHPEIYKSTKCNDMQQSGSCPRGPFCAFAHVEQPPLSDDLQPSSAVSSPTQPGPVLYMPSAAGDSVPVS
Test: nsRBNS (natural sequence RNA bind-n-seq); RBNS binding buffer (assumed for nsRBNS): 25 mM Tris pH 7.5, 150 mM KCl, 3 mM MgCl2, 0.01% Triton X-100, 500 ug/ml BSA, 20 U/ml SUPERase-In, 4 C; UNK is unkempt and MSI1 is Musashi-1; names of the RNAs are library labels; protein concentration not given here; high values mean tight binding

Question: How did the binding signal turn out when B1 was run?
Answer: The binding signal was 1.56 enrichment R.

Question: Which binding signal does the source give for B2 here?
Answer: Its binding signal is 0.31 enrichment R.

Question: How did the binding signal turn out when B3 was run?
Answer: Its binding signal is 0.371 enrichment R.

Question: For B4, which binding signal is on record?
Answer: The binding signal was 0.713 enrichment R.

Question: Which binding signal does the source give for B5 here?
Answer: The binding signal was 0.626 enrichment R.

Question: With B6 as the binder, how does the binding signal read?
Answer: The binding signal was 0.644 enrichment R.

Question: For B7, which binding signal is on record?
Answer: Its binding signal is 0.289 enrichment R.

Question: Which binding signal does the source give for B8 here?
Answer: Its binding signal is 1.49 enrichment R.

Question: Which binding signal does the source give for B9 here?
Answer: Its binding signal is 0.585 enrichment R.

Question: How did the binding signal turn out when B10 was run?
Answer: Its binding signal is 0.401 enrichment R.

Question: B11 was tested. Which binding signal did it give?
Answer: The binding signal was 1.11 enrichment R.

Question: How did the binding signal turn out when B12 was run?
Answer: Its binding signal is 0.43 enrichment R.

Question: How did the binding signal turn out when B13 was run?
Answer: Its binding signal is 0.549 enrichment R.

Question: Which binding signal does the source give for B14 here?
Answer: The binding signal was 0.394 enrichment R.

Question: With B15 as the binder, how does the binding signal read?
Answer: The binding signal was 0.544 enrichment R.

Question: B16 was tested. Which binding signal did it give?
Answer: Its binding signal is 1.1 enrichment R.

Question: For B17, which binding signal is on record?
Answer: Its binding signal is 0.537 enrichment R.

Question: With B18 as the binder, how does the binding signal read?
Answer: The binding signal was 0.749 enrichment R.

Question: B19 was tested. Which binding signal did it give?
Answer: Its binding signal is 0.563 enrichment R.

Question: How did the binding signal turn out when B20 was run?
Answer: The binding signal was 0.638 enrichment R.

Question: Which binding signal does the source give for B21 here?
Answer: The binding signal was 0.434 enrichment R.

Question: For B22, which binding signal is on record?
Answer: Its binding signal is 0.986 enrichment R.
